Laboratory results as given in PubChem BioAssay AID1240 (Sanford-Burnham Center for Chemical Genomics, 2008).
Hit rate of the full screen: of about 50,000 compounds, about 800 (1.6%) showed an effect of 50% or more. Some of the results follow.

These molecules were tested against Bcl-2-like protein 10 (Homo sapiens) (UniProt Q9HD36) (assay: TR3 peptide-Bcl-B binding displacers, biochemical primary FP assay, phenotype converters (AID 1240;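 also: 0% = Bcl-B with tracer peptide and DMSO and 100% = tracer peptide lacking Bcl-B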)). Settings: GST-Bcl-B / FITC-TR3 peptide fluorescence polarization; stronger effect = higher value; compound at 3.75 mg/L.
Chain of UniProt Q9HD36 (Q9HD36 whole entry, looked up): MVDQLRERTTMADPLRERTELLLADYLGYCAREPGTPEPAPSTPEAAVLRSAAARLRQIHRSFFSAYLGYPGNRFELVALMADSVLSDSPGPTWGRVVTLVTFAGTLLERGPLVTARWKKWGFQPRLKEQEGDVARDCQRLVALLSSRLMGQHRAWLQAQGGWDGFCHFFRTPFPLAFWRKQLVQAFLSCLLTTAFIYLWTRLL
In the case of Brc1ccc(OCCCCCN2CCCCC2)cc1, the displacement was 7.9%. C(=N/Nc1nc2ccccc2[nH]1)/c1ccc(N2CCOCC2)cc1 gave a displacement of -10%. Cc1ccc(C(=O)Nc2ccccc2C(=O)N2CCC(C)CC2)cc1 was tested, and the displacement was -9.9%. COc1ccc(-c2cc(-c3ccccc3)n[nH]2)c(O)c1 was tested, and the displacement was 0.3%. O=c1oc2ccc([N+](=O)[O-])cc2c(SCCNc2ccccc2)c1[N+](=O)[O-] showed a displacement of -8.1%. With O=C(CCn1c2ccccc2c2ccccc21)NNC(=S)Nc1ccccc1 the displacement was -12.7%. In the case of COc1cccc(OCCCCNCC2CCCO2)c1 (configuration not stated), the displacement was -8.5%. For COc1ccc([N+](=O)[O-])cc1/C=C1/SC(=O)NC1=O, the displacement was 9.2%. For COC(=O)CNC(c1ccccc1Cl)c1cc(Br)ccc1NC(=O)CCN1CCOCC1 (configuration not stated), the displacement was 1.4%. Molecule O=[N+]([O-])c1ccc(Oc2ccc(S(=O)(=O)N3CCCC3)cc2)cc1 has a displacement of -8%. O=[N+]([O-])c1cccc(C2Nc3ccc4ccccc4c3C3C=CCC32)c1 (configuration not stated) gave a displacement of 11.1%. Molecule O=[N+]([O-])c1cc2nc(N3CCOCC3)c(N3CCOCC3)nc2cc1[N+](=O)[O-] has a displacement of -4.6%. CCOc1ccc2c(c1)-c1c(ssc1=S)C(C)(C)N2C(=O)c1ccc(OC)c(OC)c1 showed a displacement of 4.8%. Molecule O=C(Nc1cccc2ccccc12)C1CC2CCC1C2 (configuration not stated) has a displacement of -12.3%. Cc1cc(Cl)ccc1OCC(=O)Nc1cc(Cl)cc(Cl)c1 showed a displacement of 7.9%. CCOc1ccc(C(=O)Nc2ccc(OC)c(OC)c2)cc1[N+](=O)[O-] gave a displacement of 10.1%. With CCCN(CCC)c1ccc(C2NC(=O)c3c(sc4c3CCN(C)C4)N2)cc1 (configuration not stated) the displacement was -17.8%. Work on CCc1ccccc1NC(=O)C1CC(=O)N(c2ccc(C)cc2)C1 (configuration not stated) yielded a displacement of 10.4%. Molecule COc1cc(NC(=O)/C=C/c2ccc(OC)c(Br)c2)c(OC)cc1Cl has a displacement of 5.1%. Cc1ccc(S(=O)(=O)/N=C(\N)c2ccc(F)cc2)cc1 was tested, and the displacement was 15.6%. CCOc1ccc(-c2nc3nc(C)c(Br)cc3[nH]2)cc1 showed a displacement of 5.7%. Work on O=C(Cc1ccccc1)N1CCN(c2ccc([N+](=O)[O-])cc2Cl)CC1 yielded a displacement of -1.3%. Cc1ccc(-c2csc(NC(=O)c3ccc(F)cc3)n2)cc1 showed a displacement of -1.1%. In the case of CCOC(=O)c1c(NC(=O)c2ccc(OC)c(OC)c2)sc(C(=O)Nc2ccccc2F)c1C, the displacement was 2.9%. Molecule CC(=O)Nc1ccc2cc(S(=O)(=O)O)cc(OS(=O)(=O)c3ccccc3)c2c1 has a displacement of -1.2%. Cc1ccc(S(=O)(=O)Nc2cccc(-c3csc(-c4ccccc4)n3)c2)cc1[N+](=O)[O-] showed a displacement of 17.5%. For Cc1nnc(N/N=C/c2ccc(C(=O)O)cc2)[nH]c1=O, the displacement was -23.2%. With Cc1cc(C)nc(/N=C(/N)Nc2ccc([N+](=O)[O-])cc2C)n1 the displacement was -8.4%. With CCN(CC)c1ccc(NC(=O)c2ccc(-c3ccc([N+](=O)[O-])cc3C)o2)cc1 the displacement was 13.9%. For O=C1C(=O)N(Cc2cccnc2)C(c2ccc(Br)cc2)/C1=C(\O)c1ccccc1 (configuration not stated), the displacement was -25.2%. CN1CCN(c2ccc([N+](=O)[O-])c(NCCOc3ccc(Cl)cc3)c2)CC1 was tested, and the displacement was 3.8%. Work on Cc1sc2nc(-c3cc(Cl)ccc3O)[nH]c(=O)c2c1C yielded a displacement of -10.3%. NC(=O)c1ccc(NC(=O)c2cc(C(F)(F)F)cc(C(F)(F)F)c2)cc1 showed a displacement of -19.4%. Molecule CC1=CC(C)(C)N(C(=O)NC2CCCCC2)c2cc(C)ccc21 has a displacement of -1%. With CN1C(=O)C2(NN=C(c3cccc4ccccc34)S2)c2ccccc21 (configuration not stated) the displacement was 15.4%. Work on Cc1ccc(C)c(NC(=O)c2ccc(OCC(C)C)cc2)c1 yielded a displacement of 7.8%. Molecule CCOC(=O)c1cnc2cc(-c3ccccc3Cl)[nH]n2c1=O has a displacement of 11.4%. O=C(Nc1cccc(C(F)(F)F)c1)c1ccc(C(=O)c2ccccc2)o1 showed a displacement of -9.7%. With COc1cc(OC)c(OC)cc1CNc1cccc(C)c1 the displacement was 4.3%. Molecule COc1cc(/C=c2/sc3nc4cc(C)c(C)cc4n3c2=O)ccc1OCc1ccccc1 has a displacement of 6.4%. CC1=NN(c2nc(-c3ccc(F)cc3)cs2)C(=O)/C1=C\c1ccc2c(c1)OCO2 was tested, and the displacement was -2.6%. COc1ccc(OC)c(/C=C2\C(=O)N(c3cccc(C(=O)O)c3)N=C2C)c1 was tested, and the displacement was 2.5%. O=C1C(=O)N(c2nccs2)C(c2ccc(F)cc2)/C1=C(/O)c1ccc(Cl)cc1 (configuration not stated) showed a displacement of 8.8%. NC(=O)c1cccc(N=Cc2c[nH]c3ccccc23)c1 gave a displacement of -9.1%. Cc1ccc(N=Cc2c(O)c([N+](=O)[O-])cc3oc4c(c23)CCCC4)cc1C gave a displacement of -1.4%. Cc1ccc(OCC(=O)Nc2ccc(F)c([N+](=O)[O-])c2)cc1C gave a displacement of 11.4%. Work on CCOc1ccc(C(=O)Nc2ccc(N3CCOCC3)c(Cl)c2)cc1Cl yielded a displacement of 13.8%. COc1cc(/C=C2/SC(=S)NC2=O)cc(Cl)c1OCc1ccc(Cl)cc1Cl gave a displacement of 6.6%. N/C(=N\OC(=O)Cc1ccccc1)c1ccncc1 was tested, and the displacement was -7.8%. With CCOC(=O)c1ccc2c(c1)C1C=CCC1C(c1ccc(Cl)cc1)N2 (configuration not stated) the displacement was 0.9%. For CC(C)C(=O)N1c2ccccc2C(N(C(=O)C(C)C)c2ccccc2)CC1C (configuration not stated), the displacement was -0.6%. CCc1cc(C)cc(OCCn2cc(/C=C3/SC(=S)NC3=O)c3ccccc32)c1 was tested, and the displacement was 78.8%. In the case of COc1ccc(CNC(=O)Cc2ccc(Cl)cc2)cc1, the displacement was 1.3%. Nc1nnc(CSCc2ccc(Cl)cc2Cl)s1 gave a displacement of 4.5%. Molecule CCOc1cc(/C=C2\C(=O)NC(=O)N(c3ccc(Br)c(C)c3)C2=O)cc(Cl)c1O has a displacement of -6.8%. For CN(C)/N=C\c1ccc(-c2ccc3c(c2)C(=O)NC3=O)o1, the displacement was 2.8%. For O=C(C1=C(O)C(=O)N(c2nncs2)C1c1ccc(F)cc1)c1cccs1 (configuration not stated), the displacement was 109%. Work on CCN(CC)S(=O)(=O)c1ccc(NC(=O)c2cccc([N+](=O)[O-])c2)cc1 yielded a displacement of -2.7%. Work on CCOC(=O)c1c(NC(=O)COc2ccc(Cl)cc2)sc(C(=O)Nc2ccc(OC)cc2OC)c1C yielded a displacement of 5.3%. Work on COc1ccc(NC(=O)c2cccc(I)c2)cc1Cl yielded a displacement of 7.8%. In the case of CCCOC(=O)c1ccccc1OC(=O)c1ccc([N+](=O)[O-])cc1, the displacement was -10.2%. For Nn1c(SCC(=O)O)nnc1-c1ccc(Br)cc1, the displacement was 0.4%. With O=C(NN1C(=O)c2ccccc2C1=O)c1ccc(O)cc1 the displacement was 5.9%. C=CCNc1nc2ccccn2c(=O)c1/C=C1\SC(=S)N(CCc2ccccc2)C1=O showed a displacement of -26.4%. For CC(C)N1CCc2c(sc3[nH]c(=S)n(-c4ccccc4)c(=O)c23)C1, the displacement was -14.6%. C(=N\N=C(c1ccccc1)c1ccccc1)/c1cccnc1 gave a displacement of -12.3%. CCN(CC)c1ccc(C(=O)N2CCN(c3cccc(Cl)c3)CC2)cc1 was tested, and the displacement was -0.6%. For COC(=O)c1c(-c2ccc(Br)cc2)csc1NC(=O)CCCC(=O)O, the displacement was -1.1%. CCOC(=O)c1ccccc1NC(=O)CN(c1ccc(OC)c(Cl)c1)S(=O)(=O)c1ccccc1 gave a displacement of 12.6%. CC1=C(C(=O)OCCOc2ccccc2)C(c2ccc(Cl)cc2)C2=C(CC(C)(C)CC2=O)N1 (configuration not stated) showed a displacement of 2.5%. COc1ccc(C(=O)OCC(=O)c2ccc([N+](=O)[O-])cc2)cc1OC gave a displacement of -9.8%. Work on CCSc1nnc(NC(=O)c2ccccc2)s1 yielded a displacement of -2%. With O=C(N=Nc1c(O)n(CN2CCCCC2)c2ccc(Br)cc12)c1cccnc1 the displacement was -14.2%. With Cc1c(Cl)cccc1N=C1NC(=O)/C(=C/c2cccc(O)c2)S1 the displacement was -14.8%. For COc1ccccc1NC(=O)C(=O)NCc1cccnc1, the displacement was 11.1%. Cc1cc(=O)[nH]c(N/N=C/c2ccc(O)cc2)n1 showed a displacement of 3.8%. In the case of Cc1cccc(C(C)C)c1NC(=O)Nc1ccc(Cl)cc1, the displacement was -1.2%. COc1cc(NC(=O)c2ccccc2F)ccc1NC(=O)c1cc2ccccc2o1 gave a displacement of 4.5%. CC1CCC(N2CCN(Cc3cccc(Br)c3)CC2)CC1 (configuration not stated) was tested, and the displacement was 1.5%. With CCOC(=O)C1=C(O)/C(=C/c2cccc(O)c2)SC1=Nc1ccccc1 the displacement was -54.7%. CCOc1ccc(N(C)S(=O)(=O)c2ccc(Cl)cc2)cc1 showed a displacement of 3.2%. CCOC(=O)C(=CNc1cccc(Br)c1)C(=O)OCC showed a displacement of 4.8%. With COc1ccc(C(=O)CSc2ncn[nH]2)cc1[N+](=O)[O-] the displacement was 12.8%. C=CCNC(=O)CN(c1ccc(Oc2ccccc2)cc1)S(C)(=O)=O showed a displacement of 6.6%. Work on Cc1ccc2nc(-c3cccc(NC(=S)NC(=O)c4ccco4)c3)oc2c1 yielded a displacement of 11.6%. Molecule O=[N+]([O-])c1cccc2c1NC(c1ccc(F)cc1)C1CC=CC21 (configuration not stated) has a displacement of 7.1%. Molecule CCOc1ccc(/C=C/C(=O)Nc2cc([N+](=O)[O-])ccc2C)cc1OC has a displacement of 14.1%. Work on CC1=CC(C)(C)N(C(=O)CSc2nc3ccccc3s2)c2ccccc21 yielded a displacement of -1.1%. COc1ccc(CCNC(=O)C(=O)N2CCCCCC2)cc1OC gave a displacement of -1.3%. Cc1c(NC(=O)CCN2C(=O)S/C(=C\c3ccc(Cl)cc3)C2=O)c(=O)n(-c2ccccc2)n1C gave a displacement of -2%. Work on COc1cccc2cc(-c3nc(-c4cccc([N+](=O)[O-])c4)cs3)c(=O)oc12 yielded a displacement of -1.9%. Molecule CCc1c(C)sc(NC(=O)COc2ccccc2)c1C(N)=O has a displacement of 7.7%. With COc1cccc(N/C(=N/S(=O)(=O)c2ccc(C)cc2)Nc2nc(C)cc(C)n2)c1 the displacement was 13.6%. Molecule NC(=O)CCCN1C(=O)/C(=C/c2ccccc2)SC1=S has a displacement of 28.9%. O=C(/C=C/Nc1ccc(Br)c(Cl)c1)c1ccccc1 gave a displacement of -1.3%. In the case of CCOc1cc(/C=C2/C(=O)NC(=O)N(C)C2=O)cc(Cl)c1O, the displacement was -11.6%. O=C(O)C1CCCCC1C(=O)Nc1nc2ccccc2s1 (configuration not stated) showed a displacement of 2.2%. For COc1ccccc1C1CC(c2ccc(C)cc2)=NN1C(=O)CCC(=O)O (configuration not stated), the displacement was 1.6%. O=C1C2ON(c3ccccc3)C(c3ccccn3)C2C(=O)N1c1ccc(Br)cc1 (configuration not stated) showed a displacement of 5.5%. With CC(=O)Nc1ccc(NS(=O)(=O)c2cc(Cl)ccc2Cl)cc1 the displacement was 10.6%. In the case of COc1ccc(-c2cc(C(=O)Nc3ncccc3Cl)c3ccccc3n2)cc1OC, the displacement was -8.7%. Molecule Nc1nnnn1CC(=O)OCC(=O)c1ccccc1 has a displacement of 1.1%. Cc1ccc([N+](=O)[O-])c2c1NC(c1ccc(Br)cc1)C1CC=CC21 (configuration not stated) gave a displacement of 5.2%. O=C(NCCCN1CCOCC1)C(=O)NC1CCCCC1 was tested, and the displacement was -9.7%. With CC(=O)C1=C(O)CC(C)(C)CC1=NCc1ccccc1 the displacement was 3.6%. O=C(Nc1ccccc1)c1ccc(Cl)c(NC(=O)c2cccs2)c1 gave a displacement of 1.2%. With Cc1ccc(NCN2C(=O)CSC2=O)c(C)c1 the displacement was 6.1%.
